According to publication PMC4336329 (PLoS ONE, 2015):
About 14,000 (4.5%) of roughly 310,000 compounds showed an effect of 50% or more. Effects have a minus sign here. Some of the results follow.

target: human ether-à-go-go-related gene (hERG) potassium channel (human, UniProt Q12809); experiment: primary screen, population patch clamp on CHO cells stably expressing hERG
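Further: peak tail current of the secondary pulse compared with the same well before compound.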

Sequence of human ether-à-go-go-related gene (hERG) potassium channel (Q12809 whole entry, looked up): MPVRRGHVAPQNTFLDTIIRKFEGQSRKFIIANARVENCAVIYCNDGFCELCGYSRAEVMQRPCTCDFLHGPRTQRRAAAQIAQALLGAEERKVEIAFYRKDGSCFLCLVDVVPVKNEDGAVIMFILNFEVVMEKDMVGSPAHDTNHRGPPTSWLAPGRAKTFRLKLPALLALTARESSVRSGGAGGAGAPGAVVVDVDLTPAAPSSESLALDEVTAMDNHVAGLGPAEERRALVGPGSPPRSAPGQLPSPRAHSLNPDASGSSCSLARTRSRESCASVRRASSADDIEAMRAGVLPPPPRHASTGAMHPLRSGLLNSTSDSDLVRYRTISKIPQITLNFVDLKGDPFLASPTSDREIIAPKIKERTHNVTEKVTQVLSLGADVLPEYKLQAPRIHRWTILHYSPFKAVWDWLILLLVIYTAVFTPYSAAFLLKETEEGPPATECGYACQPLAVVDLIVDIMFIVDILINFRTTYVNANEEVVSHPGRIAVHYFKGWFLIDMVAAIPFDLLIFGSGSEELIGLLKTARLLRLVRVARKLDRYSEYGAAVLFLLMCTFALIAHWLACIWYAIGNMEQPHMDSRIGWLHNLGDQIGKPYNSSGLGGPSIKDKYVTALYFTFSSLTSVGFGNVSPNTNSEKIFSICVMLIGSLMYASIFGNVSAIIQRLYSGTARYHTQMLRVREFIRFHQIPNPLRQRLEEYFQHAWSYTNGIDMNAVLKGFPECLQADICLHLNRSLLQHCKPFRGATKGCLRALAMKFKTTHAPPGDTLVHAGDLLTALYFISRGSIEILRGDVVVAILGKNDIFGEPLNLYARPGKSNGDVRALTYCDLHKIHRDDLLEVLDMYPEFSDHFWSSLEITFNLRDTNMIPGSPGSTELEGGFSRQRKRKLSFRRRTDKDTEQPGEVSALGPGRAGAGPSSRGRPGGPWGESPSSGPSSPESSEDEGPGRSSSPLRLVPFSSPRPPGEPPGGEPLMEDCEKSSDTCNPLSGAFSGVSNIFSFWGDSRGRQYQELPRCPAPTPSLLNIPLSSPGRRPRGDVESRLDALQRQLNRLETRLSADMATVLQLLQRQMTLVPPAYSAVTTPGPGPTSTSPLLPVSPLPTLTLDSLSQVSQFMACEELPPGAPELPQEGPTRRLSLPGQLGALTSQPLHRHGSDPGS

Q: For `O=c1[nH]c(C2CCN(S(=O)(=O)c3ccc4c(c3)OCCO4)CC2)nc2c1nnn2Cc1ccccc1F`, which “hERG current change (%, negative = inhibition) at 10uM” value is on record?
A: Its value is 4.55%.

Q: For `CCOC(=O)C(Cc1ccc(N)cc1)N1C(=O)c2ccccc2C1=O.Cl` (centres unmarked), which “hERG current change (%, negative = inhibition) at 10uM” value is on record?
A: Its value is 11.7%.

Q: `Cc1ccc(C(=O)Nc2c(N)nc(SCC(=O)NCC3CCCO3)[nH]c2=O)cc1` (centres unmarked) was tested. Which “hERG current change (%, negative = inhibition) at 10uM” value did it give?
A: Its value is 26.3%.

Q: For `O=C(c1ccco1)N1CCN(S(=O)(=O)c2ccc(Br)s2)CC1`, which “hERG current change (%, negative = inhibition) at 10uM” value is on record?
A: The value was -16%.

Q: For `COc1cc(/C=N/n2c(-c3cc(C)[nH]n3)n[nH]c2=S)ccc1O`, which “hERG current change (%, negative = inhibition) at 10uM” value is on record?
A: Its value is 18.5%.

Q: `Fc1ccc(NC(=S)Nc2cccc3cnccc23)cc1` was tested. Which “hERG current change (%, negative = inhibition) at 10uM” value did it give?
A: The value was 14.1%.

Q: `CC1(CC(=O)N/N=C/c2cc([N+](=O)[O-])c(O)cc2O)OCCO1` was tested. Which “hERG current change (%, negative = inhibition) at 10uM” value did it give?
A: Its value is 12.9%.

Q: For `COc1nc(-c2ccccc2Cl)ccc1C#N`, which “hERG current change (%, negative = inhibition) at 10uM” value is on record?
A: The value was 1.38%.

Q: How did the “hERG current change (%, negative = inhibition) at 10uM” value turn out when `Cc1cccc(N2CCN(C(=S)Nc3ccc4nc(N5CCN(C)CC5)cc(C)c4c3)CC2C)c1` (centres unmarked) was run?
A: Its value is 5.63%.

Q: How did the “hERG current change (%, negative = inhibition) at 10uM” value turn out when `CCCCc1nnc(NC(=O)Cn2cnc3ccccc3c2=O)s1` was run?
A: Its value is -6.83%.

Q: For `COC(=O)c1ccccc1N(C)S(=O)(=O)c1cc2c3c(c1)CCC(=O)N3CCC2`, which “hERG current change (%, negative = inhibition) at 10uM” value is on record?
A: The value was -4.11%.

Q: `Cc1ccc(-c2nn(C)c(=O)c3ccccc23)cc1CO` was tested. Which “hERG current change (%, negative = inhibition) at 10uM” value did it give?
A: Its value is -2.66%.

Q: How did the “hERG current change (%, negative = inhibition) at 10uM” value turn out when `CC(NC(=O)NNC(=O)c1ccncc1)(C(F)(F)F)C(F)(F)F` was run?
A: The value was -1.64%.

Q: With `Cc1ccc(-c2cc(C(=O)Nc3c(C)n(C)n(-c4ccccc4)c3=O)[nH]n2)c(O)c1` as the molecule, how does the “hERG current change (%, negative = inhibition) at 10uM” value read?
A: Its value is 9.59%.

Q: `Cc1cccnc1NC(=O)c1cccc(S(=O)(=O)NCc2ccccc2)c1` was tested. Which “hERG current change (%, negative = inhibition) at 10uM” value did it give?
A: The value was -14.9%.

Q: `CCC(Oc1ccccc1)C(=O)Nc1ccc(S(=O)(=O)N2CCOCC2)cc1` (centres unmarked) was tested. Which “hERG current change (%, negative = inhibition) at 10uM” value did it give?
A: The value was -28.2%.

Q: For `Cc1cc(C(=O)CSc2nc3ccc(Cl)cc3[nH]2)c(C)n1C`, which “hERG current change (%, negative = inhibition) at 10uM” value is on record?
A: Its value is -7%.

Q: `CN(C(=O)CCCN1C(=O)c2cccc3cccc(c23)C1=O)c1ccccc1` was tested. Which “hERG current change (%, negative = inhibition) at 10uM” value did it give?
A: The value was -31.1%.

Q: `Fc1ccccc1CSc1nnc2ccc(-c3ccncc3)nn12` was tested. Which “hERG current change (%, negative = inhibition) at 10uM” value did it give?
A: The value was -43.1%.

Q: For `COC(=O)C(CCSC)NC(=O)Cn1ncc2c(=O)oc3ccccc3c21` (centres unmarked), which “hERG current change (%, negative = inhibition) at 10uM” value is on record?
A: The value was -2.24%.

Q: `COc1ccc(Nc2nc(Nc3ccc(OC)cc3)nc(-n3[nH]c(=O)c(C)c3C)n2)cc1` was tested. Which “hERG current change (%, negative = inhibition) at 10uM” value did it give?
A: The value was -10.1%.

Q: With `O=C(Nc1ccc2c(c1)OCO2)C1CC(c2ccccc2Cl)=NO1` (centres unmarked) as the molecule, how does the “hERG current change (%, negative = inhibition) at 10uM” value read?
A: Its value is -12.7%.

Q: For `N#C/C(=C\c1ccccc1OCc1ccc(C(=O)O)cc1)c1ccccc1`, which “hERG current change (%, negative = inhibition) at 10uM” value is on record?
A: The value was 15.2%.

Q: With `COc1ccc(C(=O)NC2CC2)cc1OC1CCN(Cc2ccccc2)CC1` as the molecule, how does the “hERG current change (%, negative = inhibition) at 10uM” value read?
A: The value was -81.6%.

Q: How did the “hERG current change (%, negative = inhibition) at 10uM” value turn out when `C=CCSc1nc2sc3c(c2c(=O)n1CC=C)CCc1ccccc1-3` was run?
A: Its value is 11.9%.

Q: For `O=C(NCCN1CCOCC1)c1ccc(CS(=O)c2ccccc2Cl)o1` (centres unmarked), which “hERG current change (%, negative = inhibition) at 10uM” value is on record?
A: Its value is -0.923%.

Q: Which “hERG current change (%, negative = inhibition) at 10uM” value does the source give for `O=C1C2CCCN2C(=S)N1c1ccc(Cl)cc1` (centres unmarked) here?
A: Its value is 8.29%.

Q: With `CC(C)(C)S(=O)(=O)Cc1nc(-c2ccc(Cl)c(Cl)c2)cs1` as the molecule, how does the “hERG current change (%, negative = inhibition) at 10uM” value read?
A: Its value is 11.6%.

Q: Which “hERG current change (%, negative = inhibition) at 10uM” value does the source give for `CCOC(=O)N1CCc2c(sc(N)c2C#N)C1` here?
A: Its value is 4.3%.

Q: For `Fc1ccc(OCCCCCCN2CCCC2)cc1`, which “hERG current change (%, negative = inhibition) at 10uM” value is on record?
A: Its value is -9.37%.

Q: With `Cc1ccccc1NC(=S)NCC1CCC(CNC(=S)Nc2ccccc2C)CC1` (centres unmarked) as the molecule, how does the “hERG current change (%, negative = inhibition) at 10uM” value read?
A: The value was 10.6%.

Q: With `O=C(CCNC(=O)c1ccc(Br)cc1)NCC1COc2ccccc2O1` (centres unmarked) as the molecule, how does the “hERG current change (%, negative = inhibition) at 10uM” value read?
A: The value was -5.67%.

Q: How did the “hERG current change (%, negative = inhibition) at 10uM” value turn out when `COc1cccc(NC(=O)CN(C)C(=O)CSC(=S)N2CCCC2)c1` was run?
A: Its value is -3.01%.

Q: `O=c1c2ccccc2n(Cc2ccc(F)cc2)c(=O)n1C1CCCC1` was tested. Which “hERG current change (%, negative = inhibition) at 10uM” value did it give?
A: Its value is 8.16%.

Q: How did the “hERG current change (%, negative = inhibition) at 10uM” value turn out when `CCn1nnnc1NCc1ccc(OCc2ccc(F)cc2Cl)c(OC)c1` was run?
A: The value was -10.8%.

Q: How did the “hERG current change (%, negative = inhibition) at 10uM” value turn out when `CCOC(=O)c1cc(-c2ccc3c(c2)OCCO3)nc2c1c(C)nn2CCC#N` was run?
A: Its value is 3.85%.

Q: `CCOc1ccc(-c2cc(C(=O)NN3CCN(C)CC3)c3cc(Cl)ccc3n2)cc1` was tested. Which “hERG current change (%, negative = inhibition) at 10uM” value did it give?
A: The value was 22.5%.

Q: Which “hERG current change (%, negative = inhibition) at 10uM” value does the source give for `O=C(Cn1cnc2ccccc2c1=O)NCC1COc2ccccc2O1` (centres unmarked) here?
A: The value was -5.88%.

Q: How did the “hERG current change (%, negative = inhibition) at 10uM” value turn out when `CC(=O)c1ccc(Nc2cc(C)nc3c(C)cc(C)cc23)cc1` was run?
A: The value was -45.7%.

Q: `O=c1c2c(nc3cc(-c4ccc(Br)cc4)[nH]n13)CCCC2` was tested. Which “hERG current change (%, negative = inhibition) at 10uM” value did it give?
A: Its value is -2.69%.

Q: Which “hERG current change (%, negative = inhibition) at 10uM” value does the source give for `CCCn1c(O)c(N=NC(=O)CNC(=O)Cc2ccc(OC)cc2)c2ccccc21` here?
A: The value was 25.4%.

Q: `O=C(Cc1ccc(Cl)cc1)N1CCN(c2ccccc2)CC1` was tested. Which “hERG current change (%, negative = inhibition) at 10uM” value did it give?
A: The value was -12.2%.

Q: Which “hERG current change (%, negative = inhibition) at 10uM” value does the source give for `CCOC(=O)c1c(N2C(=O)C3C4C=CC(C4)C3C2=O)sc2c1CCC(C)C2` (centres unmarked) here?
A: Its value is 0.634%.

Q: `COc1ccc(CCN2C(=S)N(c3ccccc3)C(=O)C2CC(=O)O)cc1OC` (centres unmarked) was tested. Which “hERG current change (%, negative = inhibition) at 10uM” value did it give?
A: The value was 18.5%.

Q: For `CC1=C(C(=O)OC(C)C)C(c2cccc([N+](=O)[O-])c2)n2c(cc(=O)[nH]c2=S)N1` (centres unmarked), which “hERG current change (%, negative = inhibition) at 10uM” value is on record?
A: Its value is 8.73%.

Q: For `CC(C)n1cc(/C=C2/SC(=O)N(CC(=O)N3CCCC3)C2=O)c2ccccc21`, which “hERG current change (%, negative = inhibition) at 10uM” value is on record?
A: Its value is 12.1%.

Q: How did the “hERG current change (%, negative = inhibition) at 10uM” value turn out when `Cc1cccn2cc(CCNS(=O)(=O)c3ccc([N+](=O)[O-])cc3)nc12` was run?
A: The value was -22.7%.

Q: How did the “hERG current change (%, negative = inhibition) at 10uM” value turn out when `Cc1cc(Cl)c(Cl)cc1S(=O)(=O)NCCCn1ccnc1` was run?
A: The value was -26.4%.

Q: `COCC(O)CNc1ccccc1` (centres unmarked) was tested. Which “hERG current change (%, negative = inhibition) at 10uM” value did it give?
A: Its value is 16.1%.

Q: Which “hERG current change (%, negative = inhibition) at 10uM” value does the source give for `CC(=O)O[C@]1(C(C)=O)CC[C@H]2[C@@H]3C=C(C)C4=CC(=O)CC[C@@H]4[C@H]3CC[C@@]21C` here?
A: Its value is -41.1%.

Q: Which “hERG current change (%, negative = inhibition) at 10uM” value does the source give for `CC1CC(C)(C)NC(=S)N1CCC(=O)NCc1ccc(F)cc1` (centres unmarked) here?
A: The value was 12.7%.

Q: For `CC(/C=C/c1ccco1)=N/NC(=O)CNc1ccccc1C`, which “hERG current change (%, negative = inhibition) at 10uM” value is on record?
A: The value was -7.19%.

Q: Which “hERG current change (%, negative = inhibition) at 10uM” value does the source give for `Nc1nnc(-c2ccc(Cl)cc2Cl)s1` here?
A: The value was 35.7%.

Q: How did the “hERG current change (%, negative = inhibition) at 10uM” value turn out when `COC(=O)C1=C(C)N(Cc2ccc3c(c2)OCO3)C(=O)C1` was run?
A: The value was 7.16%.

Q: `Nc1cc(-c2ccc(Br)cc2)nc2cc(-c3ccccc3)nn12` was tested. Which “hERG current change (%, negative = inhibition) at 10uM” value did it give?
A: The value was 12.6%.

Q: With `Oc1ccc(N=Cc2sc3ccccc3c2Cl)cc1` as the molecule, how does the “hERG current change (%, negative = inhibition) at 10uM” value read?
A: The value was 1.33%.
